Laboratory results as given in PMC4336329 (PLoS ONE, 2015).
In all, about 310,000 compounds went through this assay and about 14,000 (4.5%) showed an effect of 50% or more. The effect is printed as a negative number. Some of the results follow.

Target: human ether-à-go-go-related gene (hERG) potassium channel (human, UniProt Q12809)
Test: primary screen, population patch clamp on CHO cells stably expressing hERG
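Also: peak tail current of the secondary pulse compared with the same well before compound.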

human ether-à-go-go-related gene (hERG) potassium channel, sequence (Q12809 whole entry, looked up): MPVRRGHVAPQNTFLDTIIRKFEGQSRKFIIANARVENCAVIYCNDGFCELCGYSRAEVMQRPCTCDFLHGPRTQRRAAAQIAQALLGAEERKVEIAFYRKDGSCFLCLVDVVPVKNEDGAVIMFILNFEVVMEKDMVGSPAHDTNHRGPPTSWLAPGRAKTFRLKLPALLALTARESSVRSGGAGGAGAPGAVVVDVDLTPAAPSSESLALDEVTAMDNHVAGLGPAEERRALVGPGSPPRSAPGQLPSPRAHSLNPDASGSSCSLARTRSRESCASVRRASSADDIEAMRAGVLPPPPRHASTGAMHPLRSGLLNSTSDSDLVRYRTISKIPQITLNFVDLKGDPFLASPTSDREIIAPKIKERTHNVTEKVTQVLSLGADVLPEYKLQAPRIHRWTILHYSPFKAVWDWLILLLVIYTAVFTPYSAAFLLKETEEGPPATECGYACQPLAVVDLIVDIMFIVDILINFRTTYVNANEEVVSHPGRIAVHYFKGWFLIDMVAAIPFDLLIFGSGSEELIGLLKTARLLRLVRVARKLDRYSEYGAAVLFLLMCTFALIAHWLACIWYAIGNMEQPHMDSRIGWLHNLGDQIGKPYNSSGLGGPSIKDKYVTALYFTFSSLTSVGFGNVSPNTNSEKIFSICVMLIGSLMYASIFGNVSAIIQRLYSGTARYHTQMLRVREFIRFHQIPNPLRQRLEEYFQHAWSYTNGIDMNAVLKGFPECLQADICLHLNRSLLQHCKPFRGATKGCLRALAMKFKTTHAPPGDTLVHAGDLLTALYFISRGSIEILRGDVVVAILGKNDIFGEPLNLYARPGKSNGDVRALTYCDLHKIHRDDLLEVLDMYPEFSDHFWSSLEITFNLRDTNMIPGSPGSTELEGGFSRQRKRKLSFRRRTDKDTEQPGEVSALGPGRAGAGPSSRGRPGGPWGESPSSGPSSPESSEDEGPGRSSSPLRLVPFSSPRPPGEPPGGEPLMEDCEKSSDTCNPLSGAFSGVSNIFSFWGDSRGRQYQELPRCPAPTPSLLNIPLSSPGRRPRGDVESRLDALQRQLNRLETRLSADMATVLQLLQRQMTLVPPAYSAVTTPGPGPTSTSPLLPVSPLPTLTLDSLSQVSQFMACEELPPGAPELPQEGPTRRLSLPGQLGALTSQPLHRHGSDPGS

SMILES | hERG current change (%, negative = inhibition) at 10uM [%]
COc1ccc(S(=O)(=O)N/N=C(/C)c2cccc(NC(=O)c3ccccc3Cl)c2)cc1 | -2.92
CC[C@]12C=CCN3CCC4(c5cc(Br)c(OC)cc5N(C)C4[C@@](O)(C(=O)OC)[C@@H]1OC(C)=O)C32 (some centres unmarked) | 7.6
Cn1c(=O)oc2cc(S(=O)(=O)Nc3cccc([N+](=O)[O-])c3)ccc21 | 4.69
CCOC(=O)c1c(C)[nH]c(C(=O)OCC(=O)NC2CCS(=O)(=O)C2)c1C (centres unmarked) | -1.13
O=C(CSc1nccc(-c2ccc(Br)cc2)n1)NCCc1ccccc1 | -2.48
Brc1ccc2oc(-c3ccn[nH]3)cc2c1 | 14.8
COc1ccc(-c2cc(C#N)nc(Oc3ccc(Cl)cc3)n2)cc1 | 6.64
COc1cc(NC(=O)COC(=O)CNC(=O)C2CCCCC2)cc(OC)c1 | 4.7
NS(=O)(=O)c1ccc(NCCCn2ccnc2)c([N+](=O)[O-])c1 | 8.43
OC1(c2ccccc2)c2ccccc2-c2ncccc21 (centres unmarked) | -3.3
O=C(NC1CCCCC1)C1CCN(c2nnnn2-c2ccccc2)CC1 | -17.9
COCCn1c(C)cc(C(=O)CSc2nc3ccccc3o2)c1C | 3.78
Cn1cnnc1SCC(=O)Nc1sc2c(c1C(N)=O)CCC2 | 1.02
Cc1ccc(S(=O)(=O)Nc2ccc(O)c3ccccc23)c(C)c1 | 4.64
COc1ccc(Cc2nc3ccccc3n2CC(=O)N/N=C/c2ccc(C)cc2O)cc1OC | 4.34
COc1ccccc1N1CCN(C(=O)c2ccncc2)CC1 | -5.58
Cc1ccc(-c2c(C(=O)N/N=C/c3ccc(C)o3)nnn2-c2nonc2N)cc1 | 16.9
COc1cc(OC)c(C(=O)CCCN2CCCC2)c(OC)c1.Cl | -4.43
COc1ccc(CNC(=O)c2ccc[nH]2)cc1Cl | 12.2
COc1cccc(C2c3[nH]c4ccccc4c3C[C@H]3C(=O)N(C)CC(=O)N23)c1 (some centres unmarked) | -24.7
CCOC(=O)N1CCC(NC(=O)Cn2cccc2C(=O)c2ccccc2C)CC1 | -12.3
CCCOC(=O)C(C)n1cnc2scc(-c3ccc(C)cc3)c2c1=O (centres unmarked) | 6.79
O=C(c1ccc(Cl)cc1)C(Cn1cncn1)C(Sc1ccccc1)c1ccccc1 (centres unmarked) | -6.65

SMILES | hERG current change (%, negative = inhibition) at 10uM [%]
NC(=O)CCC(NS(=O)(=O)c1ccc(Cl)cc1)C(=O)NCc1ccc(Cl)cc1 (centres unmarked) | 1.79
COC(=O)/C(C#N)=C1/SC=C(C)N1c1ccccc1 | -1.79
CCCCC(=O)c1ccc(O)cc1 | -30.6
O=C(Nc1nc(-c2ccc3c(c2)OCCO3)cs1)c1ccc(S(=O)(=O)N2CCCCC2)cc1 | 18
O=C(CSc1nnc(-c2cccnc2)n1CCc1ccccc1)NCc1ccccc1 | -10.9
COc1ccc(COCCN2CCN(S(=O)(=O)c3ccccc3)CCC2=O)cc1 | -12.5
COC(=O)c1ccccc1NC(=O)C1CCCN(S(=O)(=O)c2ccccc2)C1 (centres unmarked) | -39.2
O=C(O)CNC(=S)N(Cc1ccccc1F)C1CCCCC1 | 0.581
O=C(/C=C/c1cccc(Cl)c1)NCCc1ccccc1 | -5.75
CCOc1ccc(C(=O)N2CCCN(C(=O)c3ccc(OCC)cc3)CC2)cc1 | -71.8
CCc1nnc(NC(=O)CCC(=O)N2CCC(Cc3ccccc3)CC2)s1 | -10.8
COc1ccc(NC(=O)Nc2c(SC)nsc2SC)cc1 | 19.3
COc1ccccc1N1C(=O)C(=O)N(C)C1=O | 19.4
CCN(C(=O)COC(=O)Cc1ccc(F)cc1)c1c(N)n(Cc2ccccc2)c(=O)[nH]c1=O | 2.46
Cc1ccc(OCC(=O)OCC(=O)c2c(N)n(C)c(=O)n(C)c2=O)cc1C | -17.7
Cc1occc1-c1nnc(SCC(=O)c2c[nH]c3ccccc23)n1C | 6.07
CCOC(=O)CNC(=O)CSc1nnc(COc2ccc(Cl)cc2)n1CC | -5.31
Cc1ccc(S(=O)(=O)N(CC(=O)c2ccc(Cl)cc2)C(=O)N2CCN(C)CC2)cc1 | 20.9
Cl.N=c1ccn(Cc2ccc(F)cc2)cc1 | 17
CCCCC(=O)Nc1nnc(S(=O)(=O)N(CC)c2ccccc2)s1 | 23.9
COC(=O)CN1C(=O)Nc2ccc(Br)cc2C1c1ccccc1 (centres unmarked) | -14.6
COc1ccc(NC(=O)N2C[C@@H]3C[C@@H](C2)c2cccc(=O)n2C3)cc1 | 7.74
Cc1cc(C)cc(N(CC(=O)NC2CCCC2)C(=O)CNC(=O)c2cccs2)c1 | 18

SMILES | hERG current change (%, negative = inhibition) at 10uM [%]
O=C(Nc1ccc(Cl)cc1C(F)(F)F)c1ccccc1 | 8.81
O=C(Cn1ccccc1=O)c1ccc(Cl)cc1 | 32.1
CCn1c(CC(=O)Nc2ccccc2)nnc1SCC(=O)Nc1ccccc1C(=O)OC | 3.97
Cn1ncc2c(N3CCN(c4ccccc4F)CC3)ncnc21 | -28.4
CC(=O)N1CCN(C(=S)c2ccc(-c3ccc(Cl)cc3)o2)CC1 | -28.2
COc1cc(C(=O)N2C[C@@H]3CCC[C@H]2C3)ccc1OC1CCN(C(C)=O)CC1 | 15.1
OCC1CCCN(C(=S)NCCc2ccccc2)C1 (centres unmarked) | 0.885
COC(=O)c1ccc(CNC(=O)N2CCN(S(=O)(=O)c3ccc(C)cc3)CC2)cc1 | -3.35
COc1ccc2c(c1)C(=O)N(c1ccc(C)cc1)C(=O)C2 | 16
O=C(NCCN1CCOCC1)c1ccc(Cl)c(S(=O)(=O)N2CCOCC2)c1 | 13.1
CC(C)C[C@@H](CSc1ccc(Br)cc1)N1CCN(CC(C)C)CCC1=O | -68.6
Cc1oc(C(N)=O)nc1-c1ccccc1 | 17.8
COc1cccc(CNC(=O)C2CCCN(S(=O)(=O)c3cnc[nH]3)C2)c1 (centres unmarked) | -12.2
O=C(CNC(=O)c1ccc(Br)cc1)NC1=NCCS1 | 4.4
Cc1nnc(C)n1/N=C/c1ccccc1 | 5.49
C=CCn1c(SCc2cccnc2)nnc1-c1ccncc1 | -1.49
CC1=NNC(=O)C1C(c1ccc(Cl)cc1)C(C#N)C#N (centres unmarked) | -2.37
Cc1ccc(C(=O)NNC(=O)c2csc(N3CCOCC3)n2)o1 | 23
S=c1[nH]nc(-c2ccncc2)n1CC1CCCO1 (centres unmarked) | 22.2
O=C(O)C(=O)O.c1ccc2c(OCCCN3CCCCCC3)cccc2c1 | -65.8
Cc1ccc(OCCNCc2ccccc2)c(C)c1.O=C(O)C(=O)O | -6.1
O=C(Nc1ccc([N+](=O)[O-])cc1)C(Cc1ccccc1)N1C(=O)c2cccc3cccc(c23)C1=O (centres unmarked) | 9.65
COc1ccc(S(=O)(=O)N2CCCCC2C)cc1 (centres unmarked) | 4.81

SMILES | hERG current change (%, negative = inhibition) at 10uM [%]
Cc1[nH]c2ccccc2c1C(=O)CSc1nc2ccccc2c(=O)n1CCCN1CCOCC1 | -5.57
O=C(Nc1ccccc1C(=O)N1CCCCCC1)c1ccccc1Cl | 11.6
O=C(Nc1ccccn1)c1onc2c1CCCC2 | -0.419
CNC(=O)c1ccccc1S(=O)c1ccccc1C#N (centres unmarked) | 2.49
CCCCc1nnc(NC(=O)CSCc2cc(=O)n3ccsc3n2)s1 | 10
CCCc1cc(=O)oc2cc(OC(C)C(=O)NCc3ccccn3)c(Cl)cc12 (centres unmarked) | -15
CN(c1ccc(OCC(=O)OCC(=O)NCc2ccco2)cc1)S(=O)(=O)c1ccc2ccccc2c1 | 2.22
CCOC(=O)C(=NCC1CCCO1)NNc1ccccc1Cl (centres unmarked) | -9.39
Cc1ccc(C2C(C#N)=C3N=C(N)c4ccccc4N3C3=C2C(=O)CCC3)cc1 (centres unmarked) | -6.54
O=C(COC(=O)Cn1c(C(F)(F)F)nc2ccccc21)Nc1ccc2c(c1)OCCO2 | -2.54
Cc1nc2sccn2c(=O)c1S(=O)(=O)Nc1ccc(N2CCOCC2)c(Cl)c1 | 18.6
CCCCCCc1cc2cc(C(=O)NCc3ccccc3)c(=N)oc2cc1O | 5.76
CCN(CC)P(=O)(C(NC(=O)OC)C(F)(F)C(F)(F)C(F)(F)C(F)F)N(CC)CC (centres unmarked) | 5.03
CC(C)c1nnc(NC(=O)c2cc3cc(Br)ccc3oc2=O)s1 | -2.45
O=C(Nc1cccc(Cl)c1)c1cc([N+](=O)[O-])ccc1N1CCN(CCO)CC1 | -53
COc1ccc(NC(=O)CN(C)C(=O)c2csc3c2CCCC3)cc1 | -4.53
Cc1ccccc1CN1CCN(C(=O)c2cc(-c3ccncc3)nc3ccccc23)CC1 | -76.7
COc1ccccc1CNC(=O)COC(=O)CC1CC2CCC1C2 (centres unmarked) | -14.1
COc1cc(/C=C2/C(=N)N3C(=NC2=O)SN=C3S(=O)(=O)C(C)C)ccc1OS(=O)(=O)c1ccccc1 | 24.4
Cc1ccc(C(=O)CNc2ccc(Cl)cc2)cc1 | 10.7
